Laboratory results reported in article PMC4336329 (PLoS ONE, 2015).
Screen size: about 310,000 compounds; about 14,000 (4.5%) showed an effect of 50% or more. Effects have a minus sign here. This is one part of the list.

Each molecule was assayed against human ether-à-go-go-related gene (hERG) potassium channel (human, UniProt Q12809) (assay: primary screen, population patch clamp on CHO cells stably expressing hERG).
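Note: peak tail current of the secondary pulse compared with the same well before compound.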

Chain of human ether-à-go-go-related gene (hERG) potassium channel (Q12809 whole entry, looked up): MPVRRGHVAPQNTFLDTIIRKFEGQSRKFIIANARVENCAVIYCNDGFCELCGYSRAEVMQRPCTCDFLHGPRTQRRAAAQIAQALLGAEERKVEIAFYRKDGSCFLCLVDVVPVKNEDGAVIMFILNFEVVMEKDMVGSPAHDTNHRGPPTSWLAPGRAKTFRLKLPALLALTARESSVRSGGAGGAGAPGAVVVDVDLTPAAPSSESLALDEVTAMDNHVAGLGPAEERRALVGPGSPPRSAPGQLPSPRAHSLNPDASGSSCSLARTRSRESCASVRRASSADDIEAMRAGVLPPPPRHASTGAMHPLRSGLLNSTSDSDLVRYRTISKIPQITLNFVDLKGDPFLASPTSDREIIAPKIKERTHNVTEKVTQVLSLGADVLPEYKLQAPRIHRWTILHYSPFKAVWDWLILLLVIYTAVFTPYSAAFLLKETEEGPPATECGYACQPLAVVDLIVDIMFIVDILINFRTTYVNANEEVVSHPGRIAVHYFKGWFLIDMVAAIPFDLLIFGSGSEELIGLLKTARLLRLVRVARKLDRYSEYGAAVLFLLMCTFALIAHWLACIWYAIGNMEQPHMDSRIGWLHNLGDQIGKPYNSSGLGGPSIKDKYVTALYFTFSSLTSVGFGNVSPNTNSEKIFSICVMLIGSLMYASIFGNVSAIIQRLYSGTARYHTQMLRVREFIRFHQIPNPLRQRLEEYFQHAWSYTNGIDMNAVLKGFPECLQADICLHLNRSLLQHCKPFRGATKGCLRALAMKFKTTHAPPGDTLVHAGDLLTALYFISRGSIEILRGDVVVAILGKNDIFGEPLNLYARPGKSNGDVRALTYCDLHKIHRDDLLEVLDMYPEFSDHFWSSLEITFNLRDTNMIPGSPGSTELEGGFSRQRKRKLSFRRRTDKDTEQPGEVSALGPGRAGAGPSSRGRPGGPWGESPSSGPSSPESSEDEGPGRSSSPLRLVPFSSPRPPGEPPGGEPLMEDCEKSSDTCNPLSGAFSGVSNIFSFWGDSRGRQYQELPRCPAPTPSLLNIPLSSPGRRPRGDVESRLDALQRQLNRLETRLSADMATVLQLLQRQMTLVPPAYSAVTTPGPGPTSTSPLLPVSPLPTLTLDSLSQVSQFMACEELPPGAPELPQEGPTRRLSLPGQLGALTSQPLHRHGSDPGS

SMILES | hERG current change (%, negative = inhibition) at 10uM
COc1ccccc1CNC(=O)Cc1csc(NC(=O)Nc2ccccc2OC)n1 | -4.45%
CC(=O)N1CCCc2cc(S(=O)(=O)N3CCCC(C(=O)Nc4cccc(F)c4)C3)ccc21 (stereo not drawn) | -12.7%
COC(=O)c1ccc(C2NC(=O)c3c(sc(C)c3C)N2)cc1 (stereo not drawn) | 10.7%
Cn1c(=O)c2c(SCC(=O)N3CCCc4ccccc43)nc(CC(C)(C)C)nc2n(C)c1=O | -7.29%
O=C(NC1CC1)c1c(O)c2ccccc2[nH]c1=O | 14.2%
CCOc1ccccc1NC(=O)NC1CCN(CC(=O)Nc2ccc3c(c2)OCCO3)CC1 | -28%
CSCCC(NC(=O)c1ccccc1Cl)C(=O)NCCOc1ccccc1 (stereo not drawn) | -0.961%
CCOc1ccc(NC(=O)/C(C=Nc2ccccc2)=C(\C)O)cc1 | 5.6%
COc1ccc(N2C(=O)[C@H]3[C@@H](C2=O)C2c4ccccc4C=NN2[C@H]3C(=O)C(C)(C)C)cc1 (stereo partly drawn) | 11.2%
Cc1nc2ccccc2n1CC(=O)c1ccccc1 | -0.44%
COc1cc(NC(=O)C(C)Oc2ccccc2)cc(OC)c1 (stereo not drawn) | -2.9%
CCCCC(=O)NC(Nc1sc2c(c1C(N)=O)CCCC2)(C(=O)OCC)C(F)(F)F (stereo not drawn) | 2.28%
O=C(C(=O)N1CCN(Cc2ccccc2)CC1)c1c[nH]c2ccccc12 | 0.38%
Cc1ccc(CCc2nnc(SCC(=O)Nc3cccc(Cl)c3)n2-c2ccccc2)o1 | -40.5%
COC(=O)c1ccccc1S(=O)(=O)N1CCC(NC(=O)c2ccccc2)CC1 | 3.04%
Cn1c(Cc2ccc(Cl)cc2)nnc1SCC(=O)NC1CC1 | -6.99%
CCC(=O)N1c2ccc(S(=O)(=O)NCc3ccccc3)cc2CC1C (stereo not drawn) | 13%
COc1ccc(C=O)c(OC)c1 | 13.9%
CCCCCn1c(=O)c(-c2nc3ccccc3[nH]2)c(O)c2ccccc21 | 21.3%
COc1cc2c(cc1OC)C(C)N(C(=O)Nc1ccccc1)CC2 (stereo not drawn) | 12%
Cc1cc(Cl)ccc1OCCCC(=O)N1CCN(S(=O)(=O)c2ccccc2)CC1 | -13.9%
Cc1ccc(Nc2nnc(C3C(=O)N(C)C4(C)CC3c3cc(Br)ccc3O4)s2)cc1 (stereo not drawn) | 12.9%

SMILES | hERG current change (%, negative = inhibition) at 10uM
NC1=NC[C@@H](Cc2ccc(O)cc2)N1CCc1cccc(F)c1 | 5.43%
O=C(CCS(=O)(=O)c1cccc2nsnc12)N1CC(=O)N(CCc2ccccc2)C(=O)C1 | -15.7%
Cc1ccc(S(=O)(=O)CNC(=S)c2cccc(Cl)c2)cc1 | 12.7%
CCOC(=O)C1CCN(Cc2nnc(-c3cccc(Br)c3)o2)CC1 | -10.9%
COc1cccc(C(=O)CSc2nnc(-c3cc(OC)c(OC)c(OC)c3)o2)c1 | 9.51%
O=C(NNc1nccc(C(F)(F)F)n1)Nc1cccc(Cl)c1 | 3.11%
O=C(NC(=S)Nc1ccc(S(=O)(=O)Nc2ncccn2)cc1)c1ccc(Br)cc1 | 23.6%
CCCCC(C(=O)NC1CCCC1)N(Cc1ccccc1)C(=O)c1snc(C(N)=O)c1N (stereo not drawn) | -40.3%
COCCSc1ccccc1C(=O)N1CCC(Cc2ccccc2)CC1 | -24.7%
O=[N+]([O-])c1ccc(C=Nc2cccc3ccccc23)s1 | -2.12%
CCCn1cc(SCC(N)=O)c2ccccc21 | 7.28%
CCC(C)[C@H](NC(=O)NC1CCCc2ccccc21)C(=O)O (stereo partly drawn) | 20.6%
CCSc1nc2ccccc2n1C(=O)/C=C\c1ccc(OC)c(OC)c1 | 1.4%
FC(F)(F)c1nnc2ccc(N3CCN(c4ccccc4)CC3)nn12 | 2.75%
CC(C)=CC(=O)OCC(=O)Nc1cccc([N+](=O)[O-])c1 | -4.15%
COCCn1c(N)c(N(Cc2ccccc2)C(=O)COc2ccccc2F)c(=O)[nH]c1=O | 13.4%
Cc1ccc(OCC(=O)N(C)CC(=O)Nc2ccccc2Cl)c([N+](=O)[O-])n1 | -16.7%
CN(C)/C=N/c1nc(-c2ccc3c(c2)OCO3)cs1 | 3.54%
CCOC(=O)CNC(=O)CCc1nnc2ccc(N3CCC(C)CC3)nn12 | 3.67%
Cc1cc(C)c(NS(=O)(=O)c2c(C(=O)N3CCOCC3)c(C)n(C)c2C)c(C)c1 | 4.57%
Cc1cccc(NC(=O)c2sc3nc(N4CCOCC4)c4c(c3c2N)CCCC4)c1 | 14%
CCOC(=O)CSc1nc2ccccc2c(=O)n1CC1COc2ccccc2O1 (stereo not drawn) | -3.47%

SMILES | hERG current change (%, negative = inhibition) at 10uM
COCCN(Cc1cc2cc(C)cc(C)c2nc1Cl)C(=O)Nc1ccccc1 | -8.89%
Cc1[nH]n(-c2ccccc2)c(=O)c1C(=O)Nc1ccccc1 | -4.31%
CC(C)c1ccc(NC(=O)c2ccc3c(c2)CCN3S(C)(=O)=O)cc1 | -12.6%
Cc1ccc(S(=O)(=O)N2CCCC2C(=O)Nn2cnnc2)cc1 (stereo not drawn) | 6.37%
O=C(NC1CCCCCCC1)c1ccc(Br)cc1 | 4.95%
COc1ccc(Cl)cc1C(=O)CSc1nnnn1C1CCCCC1 | -4.88%
O=CC(Cl)P(=O)(N1CCCCC1)N1CCCCC1 (stereo not drawn) | 17.4%
COc1ccc(N/N=C(/C(N)=O)C2=NC(C)(C)Cc3ccccc32)cc1 | 1.85%
NC(=O)C(c1ccccn1)c1ncc(C(F)(F)F)cc1Cl (stereo not drawn) | 11.7%
Cc1cc(C(=O)N(C2CCCCC2)C2CCCCC2)no1 | -3.94%
Cc1ccc(C23CC4CC(CC(CC(=O)N5CCOCC5)(C4)C2)C3)cc1 | -36.9%
CC(=O)c1cccc(NC(=O)C=C(C)C)c1 | 8.57%
CC(C)N=C(Nc1ccccc1)c1cccnc1 | -7.11%
Cc1ccc(CCN2CC(C(=O)NCc3ccc4c(c3)OCO4)CC2=O)cc1 (stereo not drawn) | -37.2%
CC(=O)c1cccc(CN2CCN(CC(C)C)C(CCO)C2)c1 (stereo not drawn) | 5.29%
O=C(Nc1ncnc2c1CCC2)C12CC3CC(CC(C3)C1)C2 | 1.11%
[O-][n+]1c2c(nn1-c1ccc(Cl)c(Cl)c1)-c1nonc1CC2 | 23.9%
C=CCN1C(=O)/C(=C\C=C2\N(C)c3ccccc3C2(C)C)SC1=S | 10.7%
O=C1NC(=S)N/C1=C/c1ccc(Oc2ccc(C(F)(F)F)cc2[N+](=O)[O-])c(Cl)c1 | -0.81%
O=C(Nc1cccnc1)c1ccc(-c2ccc(Cl)cc2)o1 | -4.92%
COCCCNC(=O)c1ccc(CS(=O)(=O)c2cccc(C(F)(F)F)c2)o1 | -8.62%
CC(=O)N1CCOCCOCCOCC1 | 14.3%

SMILES | hERG current change (%, negative = inhibition) at 10uM
CCOC(=O)C(CC)n1cnc2c(nnn2-c2ccc(OC)cc2)c1=O (stereo not drawn) | -16.3%
CCOc1cc(C(=O)OC(C)C(=O)Nc2ccc(NC(C)=O)cc2)ccc1OCC(=O)N1CCCCC1 (stereo not drawn) | 13.3%
Cc1cc2ccccn2c1C(=O)c1cccc([N+](=O)[O-])c1 | 5.19%
O=C(NCCCN1CCCC1)c1ccc2c(c1)N(Cc1ccccc1)CCS2 | -69.6%
O=C(Cc1ccccc1)Nc1ccc2oc(-c3cccnc3)nc2c1 | 4.69%
COc1cc(/C=C2\CCc3c2nc2ccccc2c3C(=O)O)cc(OC)c1OC | -5.43%
Cc1ccc(N2C(=O)CC(N3CCc4ccccc43)C2=O)cc1Cl (stereo not drawn) | 15.6%
Cn1c(CNC2CCCCC2)nc2ccccc21 | -3.79%
Cc1ccccc1C1N(c2nccs2)C(=O)C2CCCN21 (stereo not drawn) | -62.5%
Cc1ccc(S(=O)(=O)n2[nH]c(=O)cc2N)cc1 | 10.5%
N#Cc1c(SCC(=O)Nc2nc3ccc(Br)cc3s2)sc2c(O)cc(=O)[nH]c12 | 9.27%
C/C(=N\NC(=O)c1ccc(F)cc1)c1ccc(N2CCOCC2)cc1 | -16.7%
COC(=O)[C@]1(Cc2ccccc2)N[C@H](c2ccc(-c3cc(C(C)=O)cs3)cc2)[C@@H]2C(=O)N(C)C(=O)[C@@H]21.O=C(O)C(F)(F)F | -6.3%
O=C(CN1C(=O)CC(c2ccccc2)=Nc2ccccc21)NCc1ccccc1 | 2.62%
N#Cc1ccccc1Cn1c(=O)n(Cc2ccc(C(=O)NCc3ccco3)cc2)c(=O)c2sccc21 | 3.38%
Nc1ncnc2c1ncn2[C@@H]1O[C@H](CO)[C@@H](O)[C@@H]1O | 3.71%
COc1ccc(C(=O)Nc2ccc(-c3nnn(CC(=O)N4CCN(C(=O)c5ccco5)CC4)n3)cc2)cc1 | 7.09%
Cn1cnc(S(=O)(=O)Nc2cc(-c3ccc(Cl)cc3)nn2C)c1 | 16.5%
N#Cc1ccc(Oc2ccc(S(=O)(=O)N3CCCCC3)cn2)cc1 | -24.7%
CCOC(=O)c1sc(NC(=O)C(C)C)c(C#N)c1C | 23.1%
CC1CCN(C(=O)C(C)NCc2ccc(F)cc2)CC1.O=C(O)C(=O)O (stereo not drawn) | -3.9%
